Test results taken from the supplement of paper PMC10126150.
Sequences with one replicate were seen in a single cluster, so their values are uncertain.

Test system: ATP
Assay: switch fluorescence ratio, 500 uM ATP over buffer (Cy3 cluster intensity, sum of 5 cycles each) (fold (ratio)); higher = stronger signal-on switching upon ATP binding; sequences stand for … in TCGTCGGCAGCGTCAGATGTGTATAAGAGACAGTTTTTTTTTTTTTTTTTTTTTTTTT…TC
Settings: aptamer strand: ATP DNA aptamer (quencher-CACCTGGGGGAGTATTGCGGAGGAAGG + anchor), 100 nM annealed; ATP concentration: 500 uM; one replicate
In short: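 The quencher-labelled ATP aptamer, at 100 nM, was annealed to Cy3-labelled switching-strand clusters on a modified Illumina MiSeq flow-cell. The clusters were imaged in selection buffer, then after 15 min with 500 uM ATP at 22 °C, and this buffer/ATP cycle ran five times with NaOH stripping and re-annealing between runs. Per-cluster fluorescence ratios, summed target-cycle over summed buffer-cycle Cy3 intensity, were averaged per switch-domain sequence. Clusters outside 100-1000 RFU were excluded.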
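Note: ATP exposure 15 min at 22 °C before imaging.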

Sequence	switch fluorescence ratio
CTAGCTAGGT	1.02
AGTCGCAGTA	1.04
TTCACGAGCT	1.03
ACACTCGGCC	1.06
GATTGACATG	1.12
TGGTTGAGCT	1.03
CGGGATTGAC	1.02
GAAGAAATTT	1.01
TGATAGGGGG	1.02
CAAGCTTAGA	0.954
GAAAGGGACG	1.1
CTCAGCGAT	3.21
CGGATTTTTA	0.993
GCGGGTTTG	1.03
AACTTGAGGA	0.962
TCATTGCATT	1.05
CGAAAAGGCA	0.99
CCTAGTAGCC	1.12
TTCGGTTGCT	0.948
CGGCCAACAC	3.05
AAGTTTCGG	1.01
CACGGCGGT	1.04
TATGTTCTAT	1.05
CTGCGCCCGG	1.04
ATTGTGTGAG	0.972
GTATGTAATG	0.96

Sequence	switch fluorescence ratio
TTTTTGCGGG	0.962
GTTTCACATA	0.98
ACTAATTGGG	0.993
CGCTCCCTTC	1.34
GTTCGTTACA	0.977
AACAGGGCGC	1.04
GAGCCAACGA	0.988
TACGCAGAGG	1.23
AAGGCGCGAG	1.03
TCTGGGGAAC	0.984
AGGAAAGTGG	0.982
TTTCCACAAC	1.01
TTGAACAGTG	1.04
TGAGAATGTA	0.999
GATATAAACT	0.985
AGCCCGTGGA	1.1
CGTACCCCGT	1
CGGTCACAAA	1
GGGGGTTCTG	0.941
ATTGAGTACT	1
CGTGTTCAGG	0.999
GCAGAGTGTC	0.923
GTAGGGGTTA	0.987
ACGGAGGGTC	1.07
GCGGTTATAC	2.39
TTTCCTATC	0.997

Sequence	switch fluorescence ratio
ACGAGCGCCG	1.05
CGATGGATA	1.02
CCGACATTCC	2.85
TAGCATAACT	1.23
AGGTAGTGAG	0.967
GCTCTCTC	0.999
GTAGTAAAGC	1.18
TGGACCAGCG	1.03
AGCAGTGAGT	0.966
ATTAGAACTA	0.963
GGAGGGGCTC	1.35
GTTGGAGAAA	1.01
CGTCGAAAGT	0.981
TTTCAAAGCT	1.14
ACATGCGAAT	1.03
AATACGC	1.04
GGACTAGTAT	0.938
CTCTCAGTTT	0.999
GGAGAGCAAG	1.07
AGTTCAGAGC	0.954
ATAGGGAGG	0.977
TTAACGCTGA	1.06
TTTAACTTAC	1.61
GTGATTGGGT	0.995
AGCAAAGGTG	2.02
ATCCCCCTAG	1.34

Sequence	switch fluorescence ratio
CGACGAGTTA	1.09
TACGGCAAGG	1.07
AAACTAACG	1.28
AAAAAATGAC	1.02
TCGCGTGCTT	0.947
ATGCCTGT	1.01
ATCTCGTCTG	0.964
TTAAAGAGAT	0.947
AACATTCAAT	1.01
TATATTTTCT	1.02
GTGATCTTCC	2.48
GATCAGGGT	0.969
AGTTGCACCC	0.984
GTAGTTCAGT	0.985
GTGGACCCCT	1.01
GAAATGGTTT	1.02
CATAATGCTA	1
CGTTTTGGAA	0.956
CTAAACAGAT	1.01
AATCGACTAA	1.04
TTTTTCAACG	1.1
CTGGAGGGCC	1.02
AAATATTCAC	1.02
CTTTAATATA	1.01
CACGTGAAGG	1.02
TTGGATTGTG	0.982

Sequence	switch fluorescence ratio
AACGGACATA	1.28
GTGCAAACAC	1.01
TAGTTGACAG	0.968
GAAATAGAGT	1.46
CTGACAAGCA	2.03
GTTAGACGTG	1.02
ATTTTTCAGT	0.987
TCTGTCTAAG	1.03
CGTATAAACA	0.981
CCCGGATTTT	0.989
AGGGCTGGTT	1.03
TAGCTCACTT	0.999
AATGCTTGTG	1.03
CAATAGCAAA	1.28
GATCCTAATG	1.01
AGGTCCAGCA	1.06
TGTTTACTGG	1.03
TGCATTCAG	1.02
GCTTAAGAAT	0.917
GTCAGAATAA	1.01
TTGTTACTAG	0.999
CTCGCTCGCT	1.08
CACTTGTATA	1.01
GTGGCATGTG	1.02
TTCGTACATA	1.07
ATCGAACACC	1.06

Sequence	switch fluorescence ratio
CGCTCATGGA	1.03
ACGGACTCGG	1.04
CTTTGCCACA	1.08
ATATTGCGGA	0.99
ATAGATGACA	1.11
GCAGTTATGA	0.996
GTTTTCCATC	1.01
AGTGTACGCA	1.1
GAGTGGATAT	1.01
GGCAGCCCGT	1.01
CGGGTGAGAC	1.09
TGGGTCTGAA	1.02
TGGTTATATC	0.957
GGGACATCGC	0.998
AGTACGTG	0.987
ATGCTTTGCA	1.05
TGCGGTGAT	1.01
GTATGAACT	0.984
AAATGTTCTC	0.99
AGCGCCGATC	0.976
GGCCATATCG	0.971
GACTTAGCCT	1.04
CGCGCGCGAG	0.984
CGCACCGCCC	1.4
